From PubChem BioAssay AID485344 (National Center for Advancing Translational Sciences (NCATS), 2010)
Among all 340,000 compounds or so, about 6,900 (2%) were called active. Rule as the data show it: active = inhibition above about 30%; inactive = below that, where a call was filed. The list shows a part of the results, in another mix than the full data. The source gives no active or inactive call for entries shown without one.

target: D(2) dopamine receptor (Homo sapiens) (UniProt P14416); assay: HTS Assay for Allosteric Antagonists of the Human D2 Dopamine Receptor: Primary Screen for Antagonists; settings: HEK293 TREx D2 cells, calcium flux, dopamine EC80; at 10 µM; stronger effect = higher value; also: 0% is about no effect
Method in brief: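 In this primary screen, negative modulation is detected by tracking calcium flux after an EC80 dopamine challenge in inducible HEK293 T-REx D2 cells preexposed to test compound for 180 s.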

UniProt P14416, sequence (P14416 whole entry, looked up): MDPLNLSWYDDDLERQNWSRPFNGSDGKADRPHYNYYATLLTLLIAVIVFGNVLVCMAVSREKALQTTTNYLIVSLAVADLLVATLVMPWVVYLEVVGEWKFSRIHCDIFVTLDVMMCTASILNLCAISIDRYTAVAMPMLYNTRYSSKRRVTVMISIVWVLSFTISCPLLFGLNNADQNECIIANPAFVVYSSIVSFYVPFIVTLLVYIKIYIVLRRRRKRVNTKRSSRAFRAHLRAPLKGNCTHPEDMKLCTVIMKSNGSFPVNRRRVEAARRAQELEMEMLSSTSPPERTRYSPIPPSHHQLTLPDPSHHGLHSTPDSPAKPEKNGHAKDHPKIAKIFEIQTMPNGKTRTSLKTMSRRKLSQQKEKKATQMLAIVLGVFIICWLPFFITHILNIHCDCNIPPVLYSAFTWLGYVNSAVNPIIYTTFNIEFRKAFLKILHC

Structure (SMILES)	inhibition
CCn1c(C)c(C2N3CC4(C)CN2CC(CC)(C3)C4=O)c2ccccc21 (stereo not drawn)	-9.39%
CCc1nn(CC(=O)NCCC(C)C)c(=O)c2cc3occc3n12	9.69%
Cc1ccc(CNC(=O)C(=O)NCC(c2cccs2)S(=O)(=O)c2ccc(C)cc2)cc1 (stereo not drawn)	-2.19%
COC(=O)c1sccc1S(=O)(=O)N(CC(=O)NCc1ccccc1)c1ccccc1	4.61%
Cc1ccc2c(CNCC(C)c3ccccc3)c(C(=O)O)n(Cc3ccccc3C)c2c1 (stereo not drawn)	8.95%
Cc1ccccc1Cn1c(CN2CCC(C(=O)NCc3cccnc3)CC2)cc2ccccc21	6.27%
CCOC(=O)C1CCN(C(=O)Cn2nc(C)n3c(cc4sccc43)c2=O)CC1	-4.62%
COc1ccc(C(=O)Nc2cccc(-c3cn4ccsc4n3)c2)cc1OC	7.18%
C=Cc1ccc(N=Cc2c(O)ccc3ccccc23)cc1	active: 43.5%
COc1cccc(NC(=O)C2CCCN2C(=O)Nc2ccccc2)c1 (stereo not drawn)	active: 33.5%
CCCN1CCN(CCCNC(=O)c2ccc3c(c2)sc2nc(-c4ccc(OC)cc4)cn23)CC1	25.9%
Cc1c(C)n(Cc2ccccc2)c2ccc(C(=O)NCc3ccccc3F)cc12	-6.11%
Cc1ccc(-c2nc3ccccc3[nH]2)cc1NC(=O)COc1ccccc1[N+](=O)[O-]	20.5%
O=C(c1cnn(-c2cccc(F)c2)c1-n1cccc1)N1CCN(c2ccccc2F)CC1	-5.2%
CC(=O)c1cccc(NC(=O)CN2C(=O)c3ccccc3Sc3ncccc32)c1	24.3%
COc1ccc(-n2nc3c(N4CCC(C(=O)NCc5cccc(F)c5)CC4)nnc(C)c3c2C)cc1	4.29%
CCc1ccc(NC(=O)CCn2c(-c3ccc(OC)cc3)cc(C(C)=O)c2C)cc1	-24.4%
COc1ccc(NC(=O)c2ccc3c(c2)N(Cc2cccc(Cl)c2)C(=O)c2ccccc2S3=O)cc1Cl (stereo not drawn)	14.8%
CC1CCN(c2nc3c(S(=O)(=O)c4ccccc4)nnn3c3ccc(Cl)cc23)CC1	-7.64%
COc1cccc(Cc2nc3ccccc3nc2SCC(=O)NCCc2ccccc2)c1	-1.4%
COc1ccc(C2C=C(c3ccc(F)cc3)Nc3nc(-c4ccc(Cl)cc4)nn32)cc1 (stereo not drawn)	22.5%
O=C(Nc1cccc(C(F)(F)F)c1)c1cc2c(s1)-c1ccccc1OC2	active: 40.3%
Cc1cccc(S(=O)(=O)Nc2cccc(-c3ccc(N4CCCCC4)nn3)c2)c1	23.9%
CCN(CC)C(=O)Cn1c(=O)n(-c2ccc(Cl)c(Cl)c2)c(=O)c2c(C)c(C(=O)N(CC)CC)sc21	-20.6%

Structure (SMILES)	inhibition
CCc1nnc2c(N3CCN(c4cccc(C)c4)C(C)C3)nc3ccccc3n12 (stereo not drawn)	-8.62%
COc1cc(OC)cc(C(=O)Nc2cc3c(cc2N2CCCCC2)n(C)c(=O)n3C)c1	-7.11%
CCc1ccccc1NC(=O)Cn1c(=O)n(Cc2ccco2)c(=O)c2ccccc21	-14.5%
COc1ccc(-c2c(C#N)c(SCC(=O)Nc3cccc(Cl)c3)nc(C)c2C(=O)Nc2ccccc2)cc1OC	17.1%
CCc1ccc(NC(=O)C2CCN(c3nn4cc(-c5ccc(OC)cc5)nc4s3)CC2)cc1	23.8%
Cc1ccc(N2C(=O)CC(c3ccccc3F)C3=C2COC3=O)cc1Cl (stereo not drawn)	0.767%
COc1ccc(CNC(=O)c2cnc3sc(N4CCC(C)CC4)nn3c2=O)c(OC)c1	5.69%
O=C(Nc1cc(Cl)ccc1Cl)c1cc(S(=O)(=O)NCCc2ccccc2)ccc1F	-23.7%
Cc1nc(N2CCOCC2)c2c(C(=O)N3CCN(c4ccccc4F)CC3)c(C)oc2n1	-5.34%
Cc1ccc(CN2COc3ccc4c(C)cc(=O)oc4c3C2)cc1	3.34%
COc1ccc(-c2nc3c(c(SCC(=O)Nc4cccc(O)c4)n2)Cc2c(CO)cnc(C)c2O3)cc1	8.72%
O=C(NCc1ccc(Cl)cc1)c1cc2c(s1)-c1ccccc1SC2	-1.93%
CC(C)c1ccc(C2Sc3ccccc3NC3=C2C(=O)c2ccccc23)cc1 (stereo not drawn)	-0.881%
COC(=O)c1cc(NC(=O)CCc2c(C)nc3c(c(C)nn3C(C)(C)C)c2C)cc(C(=O)OC)c1	-7.86%
Cn1nnnc1SCCCNCc1ccc(Cl)cc1	-6.71%
COC(=O)COc1ccc(C2C(C(=O)OC)=C(C)NC3=C2C(=O)c2ccccc23)cc1OC (stereo not drawn)	-5.4%
COc1ccc(CCNC(=O)Cc2c(C)c3cc4c(C(C)(C)C)coc4c(C)c3oc2=O)cc1OC	-6.55%
Cc1cc(C)c2c(c1)NC(=O)C2(O)c1c[nH]c2ccccc12 (stereo not drawn)	16.4%
Cc1ccc2c(c1)cc1c(=O)n(Cc3cccc(Cl)c3)nc(C)n12	-1.28%
Cc1cn(C)c(CC(=O)NCc2cccc(Cl)c2)c1C(=O)O	3.23%
CC(C)(C)c1ccc(S(=O)(=O)N2CCC(Oc3ccc(-n4cnnn4)cc3)CC2)cc1	2.34%
CC(C)(C)c1ccc(CSC2=Nc3ccccc3C3=NC(CC(=O)NCc4cccs4)C(=O)N23)cc1 (stereo not drawn)	15.5%
Cc1ccc(CNS(=O)(=O)c2ccc(N3CCCCS3(=O)=O)cc2)cc1	10.4%
O=C(CNC(=O)c1ccc(Cl)cc1)OCc1cc(=O)n2nc(C3CC3)sc2n1	8.13%
